The record followed here is the supplement of paper PMC7826260.

This is one part of the list. Cleavage of a single-stranded DNA pool by Rep nickase domains was read by sequencing for 1 h at 37 °C with 3 µM enzyme; only the middle of the 90-letter strands is printed. A value is the log2 ratio of uncut reads to the pool without enzyme; more negative means more cut, near 0 not cut, and no call is made. Because reads are shares of a total, they shift together; values above 0 arise when much of the pool is cut.

Holding throughout (assay): uncleaved DNA left, log2 of reads against the no-enzyme library (log2 ratio); higher = less cleavage (more negative = more Rep cleavage of the k-mer); sequences stand for … in CTCGTCCG…ACCGGAGA
In assay [1] the test system is T1, Rep nickase domain of Muscovy duck circovirus.
T1 sequence (protein, residues 1-111, tag omitted): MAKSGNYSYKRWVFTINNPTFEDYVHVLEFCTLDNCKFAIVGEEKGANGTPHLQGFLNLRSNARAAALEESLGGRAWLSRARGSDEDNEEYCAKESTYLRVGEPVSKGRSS
The method, then:
(§1)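 A pool of 90-nt single-stranded DNAs with seven random bases just before the constant AC of the nick site (name = the seven bases) was cut by 3 µM recombinant His6-SUMO-tagged Rep nickase domain (300 nM DNA, 50 mM HEPES pH 8.0, 50 mM NaCl, 1 mM MnCl2, 1 h, 37 °C, three replicates). Uncut DNA was amplified and sequenced.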

The test system of assay [2] is T2, Rep nickase domain of banana bunchy top virus.
T2 sequence (protein, residues 1-94, tag omitted): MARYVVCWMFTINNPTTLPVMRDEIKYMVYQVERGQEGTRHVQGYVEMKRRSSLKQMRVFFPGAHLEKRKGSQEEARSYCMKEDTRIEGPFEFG
How it is done:
as §1

In assay [3] the test system is T3, Rep nickase domain of cabbage leaf curl virus.
T3 sequence (protein, residues 1-116, tag omitted): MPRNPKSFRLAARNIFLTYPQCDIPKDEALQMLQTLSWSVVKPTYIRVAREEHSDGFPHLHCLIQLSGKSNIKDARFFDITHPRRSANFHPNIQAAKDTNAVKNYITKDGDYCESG
How it is done: as §1
The subject of assay [4] is T4, Rep nickase domain of chickpea chlorotic dwarf virus.
T4 sequence (protein, residues 1-124, tag omitted): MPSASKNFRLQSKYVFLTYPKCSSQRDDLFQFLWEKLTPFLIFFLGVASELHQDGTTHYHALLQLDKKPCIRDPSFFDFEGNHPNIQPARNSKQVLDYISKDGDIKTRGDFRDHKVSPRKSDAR
How it is done: as §1
The subject of assay [5] is T5, Rep nickase domain of faba bean necrotic yellows virus.
T5 sequence (protein, residues 1-98, tag omitted): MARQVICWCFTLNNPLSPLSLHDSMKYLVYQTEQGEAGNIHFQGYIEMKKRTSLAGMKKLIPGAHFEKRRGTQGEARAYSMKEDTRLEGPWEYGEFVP
How it is done: as §1
Assay [6] deals with T6, Rep nickase domain of maize striate mosaic virus.
T6 sequence (protein, residues 1-117, tag omitted): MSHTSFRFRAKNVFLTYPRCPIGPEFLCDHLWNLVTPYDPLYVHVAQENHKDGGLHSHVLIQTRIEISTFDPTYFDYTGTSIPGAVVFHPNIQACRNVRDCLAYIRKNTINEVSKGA
The method, then: as §1
For assay [7], the system named is T7, Rep nickase domain of porcine circovirus 2.
T7 sequence (protein, residues 2-116, tag omitted): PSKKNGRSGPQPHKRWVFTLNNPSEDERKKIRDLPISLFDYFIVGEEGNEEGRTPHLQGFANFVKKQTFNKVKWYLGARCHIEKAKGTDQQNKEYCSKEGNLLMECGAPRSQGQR
How it is done: as §1
In assay [8] the test system is T8, Rep nickase domain of tomato golden mosaic virus.
T8 sequence (protein, residues 1-124, tag omitted): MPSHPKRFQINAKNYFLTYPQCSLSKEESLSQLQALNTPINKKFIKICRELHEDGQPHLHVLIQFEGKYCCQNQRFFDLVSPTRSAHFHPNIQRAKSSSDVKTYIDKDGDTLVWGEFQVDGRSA
The method, then:
as §1

For assay [9], the system named is T9, Rep nickase domain of tomato yellow leaf curl virus.
T9 sequence (protein, residues 1-136, tag omitted): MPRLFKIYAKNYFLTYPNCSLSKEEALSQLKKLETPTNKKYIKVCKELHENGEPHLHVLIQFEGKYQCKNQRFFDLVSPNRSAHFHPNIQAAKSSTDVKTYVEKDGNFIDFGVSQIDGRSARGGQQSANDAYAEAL
The method, then: as §1
In assay [10] the test system is T10, Rep nickase domain of wheat dwarf virus.
T10 sequence (protein, residues 1-137, tag omitted): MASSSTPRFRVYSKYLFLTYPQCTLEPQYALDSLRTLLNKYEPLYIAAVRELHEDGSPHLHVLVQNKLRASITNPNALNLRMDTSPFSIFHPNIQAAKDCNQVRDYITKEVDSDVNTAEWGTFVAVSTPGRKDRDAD
How it is done: as §1

For CTAGTGC, the “uncleaved DNA left (log2)” value was 0.0997 in assay [1]; 0.0668 in assay [2]; -0.548 in assay [3]; -0.773 in assay [4]; 0.0206 in assay [5]; -0.945 in [6]. Also, the “uncleaved DNA left (log2)” value is 0.191 in [7], -0.0127 in assay [8], 0.18 in [9] and -0.0406 in assay [10].
As to TGAATAG, the “uncleaved DNA left (log2)” value in [1] was 0.101; in [2], 0.202; in [3], -0.619; in assay [4], -0.351; in assay [5] it was 0.224; in assay [6], -1.08. In addition, the “uncleaved DNA left (log2)” value in assay [7] was found to be 0.304; in assay [8], 0.176; in [9], 0.235; in assay [10], 0.051.
GGTCCCA: the “uncleaved DNA left (log2)” value was -0.013 in [1]; 0.143 in assay [2]; 0.475 in assay [3]; 0.998 in [4]; -0.0186 in assay [5]; 1.71 in [6]. For the same sequence, the “uncleaved DNA left (log2)” value was 0.0619 in [7], 0.0751 in assay [8], 0.0754 in [9] and 0.131 in [10].
For the sequence TAGTTGC, the “uncleaved DNA left (log2)” value was 0.119 in [1]; -0.0449 in assay [2]; -0.78 in assay [3]; -0.362 in assay [4]; 0.0593 in assay [5]; -1.17 in assay [6]. In addition, the “uncleaved DNA left (log2)” value in [7] was -0.126; in [8], -0.162; in assay [9], 0.0297; in assay [10], -0.0997.
